# Test results: PMC7668044, “Insights into bacterial cell division from a structure of EnvC bound to the FtsX periplasmic domain” (Proceedings of the National Academy of Sciences of the …, 2020)
# These are yes or no findings as the source states them, for the method shown. For some of these results: Binding seen in cells or lysates may run through a third protein. Some binding calls cover weakened binding; strength is not graded here. Tags and fused reporters may be left off the sequences shown.
# T1: mature EnvC (murein hydrolase activator), non-tagged, co-expressed for crystallisation (E. coli) (UniProt P37690)
# T1 sequence: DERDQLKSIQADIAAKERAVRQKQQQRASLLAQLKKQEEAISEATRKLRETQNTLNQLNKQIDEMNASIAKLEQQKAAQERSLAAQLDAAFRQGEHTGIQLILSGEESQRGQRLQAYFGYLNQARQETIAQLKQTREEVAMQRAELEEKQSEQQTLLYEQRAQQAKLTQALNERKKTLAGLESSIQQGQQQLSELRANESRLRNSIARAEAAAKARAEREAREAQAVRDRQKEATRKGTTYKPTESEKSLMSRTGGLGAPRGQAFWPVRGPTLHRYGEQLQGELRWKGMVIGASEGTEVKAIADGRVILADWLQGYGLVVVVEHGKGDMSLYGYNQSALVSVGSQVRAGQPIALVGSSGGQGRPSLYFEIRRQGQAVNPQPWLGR
# T2: full-length NlpD (murein hydrolase activator), bacterial two-hybrid fusion (UniProt P0ADA3)
# T2 sequence: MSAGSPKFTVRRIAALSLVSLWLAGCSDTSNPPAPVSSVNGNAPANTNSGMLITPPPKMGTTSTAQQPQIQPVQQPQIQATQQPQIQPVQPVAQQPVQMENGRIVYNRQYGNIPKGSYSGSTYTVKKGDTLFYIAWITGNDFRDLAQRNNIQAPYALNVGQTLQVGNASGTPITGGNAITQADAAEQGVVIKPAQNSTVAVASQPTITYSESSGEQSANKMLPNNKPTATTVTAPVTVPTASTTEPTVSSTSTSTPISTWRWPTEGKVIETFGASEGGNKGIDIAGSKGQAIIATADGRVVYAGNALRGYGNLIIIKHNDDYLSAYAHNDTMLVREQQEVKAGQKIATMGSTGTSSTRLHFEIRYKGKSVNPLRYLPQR
# T3: EnvC (35 to 419), bacterial two-hybrid fusion (E. coli) (UniProt P37690)
# T3 sequence: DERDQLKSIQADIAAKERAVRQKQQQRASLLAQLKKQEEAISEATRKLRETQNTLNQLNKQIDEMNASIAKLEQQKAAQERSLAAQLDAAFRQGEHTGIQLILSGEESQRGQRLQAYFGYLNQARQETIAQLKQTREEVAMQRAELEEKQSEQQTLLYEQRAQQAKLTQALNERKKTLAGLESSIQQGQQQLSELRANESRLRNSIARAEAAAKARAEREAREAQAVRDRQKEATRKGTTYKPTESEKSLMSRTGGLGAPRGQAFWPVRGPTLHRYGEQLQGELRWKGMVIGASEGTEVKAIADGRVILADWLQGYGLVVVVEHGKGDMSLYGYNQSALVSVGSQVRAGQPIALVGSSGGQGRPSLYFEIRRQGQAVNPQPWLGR
# T4: EnvC 222 to 419 (lacking the coiled coil domain, retaining the restraining arm), bacterial two-hybrid fusion (E. coli) (UniProt P37690)
# T4 sequence: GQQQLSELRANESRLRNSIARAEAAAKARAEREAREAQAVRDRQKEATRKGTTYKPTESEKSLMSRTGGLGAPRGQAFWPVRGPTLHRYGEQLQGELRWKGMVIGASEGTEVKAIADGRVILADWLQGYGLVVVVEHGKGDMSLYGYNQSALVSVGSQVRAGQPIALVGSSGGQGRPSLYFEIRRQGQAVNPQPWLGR
# T5: EnvC LytM domain (residues 278 to 419), bacterial two-hybrid fusion (E. coli) (UniProt P37690)
# T5 sequence: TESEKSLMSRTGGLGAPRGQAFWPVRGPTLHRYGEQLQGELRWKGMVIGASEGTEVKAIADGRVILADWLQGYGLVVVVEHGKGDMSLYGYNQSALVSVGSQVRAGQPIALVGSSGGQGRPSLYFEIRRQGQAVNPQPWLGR
# T6: His-tagged EnvC LytM domain (copurification) (E. coli) (UniProt P37690)
# T6 sequence: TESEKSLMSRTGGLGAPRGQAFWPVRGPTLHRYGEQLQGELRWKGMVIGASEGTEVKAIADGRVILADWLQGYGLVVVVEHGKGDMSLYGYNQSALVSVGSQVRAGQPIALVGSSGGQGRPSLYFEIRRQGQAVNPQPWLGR
# Experiments:
# [1] = target: T1, mature EnvC (murein hydrolase activator), non-tagged, co-expressed for crystallisation (E. coli); assay: crystal structure; X-ray, 2.1 Å, space group P2(1)2(1)2(1); His-tagged FtsX periplasmic domain and non-tagged EnvC coexpressed and copurified by Ni-IMAC; molecular replacement; both purified
# [2] = target: T2, full-length NlpD (murein hydrolase activator), bacterial two-hybrid fusion; assay: two-hybrid; bacterial adenylate cyclase two hybrid (BACTH) system; E. coli BTH101 cells grown on IPTG/X-gal LB plates at room temperature; coloration followed over a time course
# [3] = target: T3, EnvC (35 to 419), bacterial two-hybrid fusion (E. coli); assay: as above
# [4] = target: T4, EnvC 222 to 419 (lacking the coiled coil domain, retaining the restraining arm), bacterial two-hybrid fusion (E. coli); assay: as above
# [5] = target: T5, EnvC LytM domain (residues 278 to 419), bacterial two-hybrid fusion (E. coli); assay: as above
# [6] = target: T6, His-tagged EnvC LytM domain (copurification) (E. coli); assay: pull-down; Ni-IMAC copurification; only the EnvC LytM domain is His-tagged; SDS gel of the copurified complexes
Binder,binding [2],binding [3],binding [5],binding [6],other results
"FtsX periplasmic domain, histidine-tagged, co-expressed for crystallisation (domain or fragment, E. coli, FtsX periplasmic domain (between the first and second transmembrane helix), E. coli; The two-hybrid construct of the same domain is residues 110 to 209; also called FtsX I; FtsX II; source: E. coli C43(DE3), coexpressed with non-tagged EnvC from a pETDuet1-based vector, copurified by Ni-IMAC) QITVYLQKTLDDDAAAGVVAQLQAEQGVEKVNYLSREDALGEFRNWSGFGGALDMLEENPLPAVAVVIPKLDFQGTESLNTLRDRITQINGIDEVRMDDS",,,,,binding [1]: binds
"AmiA construct, not His-tagged (copurification) (enzyme, UniProt P36548 35-289) KDELLKTSNGHSKPKAKKSGGKRVVVLDPGHGGIDTGAIGRNGSKEKHVVLAIAKNVRSILRNHGIDARLTRSGDTFIPLYDRVEIAHKHGADLFMSIHADGFTNPKAAGASVFALSNRGASSAMAKYLSERENRADEVAGKKATDKDHLLQQVLFDLVQTDTIKNSLTLGSHILKKIKPVHKLHSRNTEQAAFVVLKSPSVPSVLVETSFITNPEEERLLGTAAFRQKIATAIAEGVISYFHWFDNQKAHSKKR",,,,binds,
"AmiA, bacterial two-hybrid fusion (enzyme, UniProt P36548 1-289) MSTFKPLKTLTSRRQVLKAGLAALTLSGMSQAIAKDELLKTSNGHSKPKAKKSGGKRVVVLDPGHGGIDTGAIGRNGSKEKHVVLAIAKNVRSILRNHGIDARLTRSGDTFIPLYDRVEIAHKHGADLFMSIHADGFTNPKAAGASVFALSNRGASSAMAKYLSERENRADEVAGKKATDKDHLLQQVLFDLVQTDTIKNSLTLGSHILKKIKPVHKLHSRNTEQAAFVVLKSPSVPSVLVETSFITNPEEERLLGTAAFRQKIATAIAEGVISYFHWFDNQKAHSKKR",no binding,no binding,binds,,

# More lines, main results first:
binding [2],binding [3],binding [5],binding [6],Binder,other results
no binding,no binding,binds,,"AmiB, bacterial two-hybrid fusion (enzyme, UniProt P26365 1-445) MMYRIRNWLVATLLLLCTPVGAATLSDIQVSNGNQQARITLSFIGDPDYAFSHQSKRTVALDIKQTGVIQGLPLLFSGNNLVKAIRSGTPKDAQTLRLVVDLTENGKTEAVKRQNGSNYTVVFTINADVPPPPPPPPVVAKRVETPAVVAPRVSEPARNPFKTESNRTTGVISSNTVTRPAARATANTGDKIIIAIDAGHGGQDPGAIGPGGTREKNVTIAIARKLRTLLNDDPMFKGVLTRDGDYFISVMGRSDVARKQNANFLVSIHADAAPNRSATGASVWVLSNRRANSEMASWLEQHEKQSELLGGAGDVLANSQSDPYLSQAVLDLQFGHSQRVGYDVATSMISQLQRIGEIHKRRPEHASLGVLRSPDIPSVLVETGFISNNSEERLLASDDYQQQLAEAIYKGLRNYFLAHPMQSAPQGATAQTASTVTTPDRTLPN",binding [4]: no binding
,,,binds,"AmiB construct, not His-tagged (copurification) (enzyme, UniProt P26365 23-445) ATLSDIQVSNGNQQARITLSFIGDPDYAFSHQSKRTVALDIKQTGVIQGLPLLFSGNNLVKAIRSGTPKDAQTLRLVVDLTENGKTEAVKRQNGSNYTVVFTINADVPPPPPPPPVVAKRVETPAVVAPRVSEPARNPFKTESNRTTGVISSNTVTRPAARATANTGDKIIIAIDAGHGGQDPGAIGPGGTREKNVTIAIARKLRTLLNDDPMFKGVLTRDGDYFISVMGRSDVARKQNANFLVSIHADAAPNRSATGASVWVLSNRRANSEMASWLEQHEKQSELLGGAGDVLANSQSDPYLSQAVLDLQFGHSQRVGYDVATSMISQLQRIGEIHKRRPEHASLGVLRSPDIPSVLVETGFISNNSEERLLASDDYQQQLAEAIYKGLRNYFLAHPMQSAPQGATAQTASTVTTPDRTLPN",
